The compounds below were run against Stromelysin (Homo sapiens, UniProt P08254) (assay: MMP inhibition, particle concentration fluorescence assay). Conditions: in vitro; fluorescein/biotin substrate; MMP buffer pH 7.5; room temperature.
Type: biochemical

Chain of Stromelysin (P08254 100-477): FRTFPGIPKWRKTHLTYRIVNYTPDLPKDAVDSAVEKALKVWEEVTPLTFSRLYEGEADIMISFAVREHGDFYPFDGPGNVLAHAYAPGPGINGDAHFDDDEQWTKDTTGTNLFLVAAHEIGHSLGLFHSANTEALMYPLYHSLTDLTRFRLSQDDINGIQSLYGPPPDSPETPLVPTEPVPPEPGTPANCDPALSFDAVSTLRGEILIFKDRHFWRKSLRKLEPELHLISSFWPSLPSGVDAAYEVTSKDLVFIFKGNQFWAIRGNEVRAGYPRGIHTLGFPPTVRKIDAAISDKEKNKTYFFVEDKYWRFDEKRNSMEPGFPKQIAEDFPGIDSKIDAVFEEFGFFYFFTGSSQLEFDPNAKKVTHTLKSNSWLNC

SMILES | Ki [µM]
CNC(=O)[C@H](Cc1ccc(OC)cc1)NC(=O)Nc1nnc(S)s1 [Example 31, α-[[[(4,5-Dihydro-5-thioxo-1,3,4-thiadiazol-2-yl)amino]-carbonyl]amino]-4-methoxy-N-methyl-(S)-benzenepropanamide] | 0.46
O=C(Nc1nnc(S)s1)N[C@@H](Cc1ccccc1)C(=O)NCc1ccccc1 [Example 5, α-[[[(4,5-Dihydro-5-thioxo-1,3,4-thiadiazol-2-yl)amino]carbonyl]-amino]-N-(phenylmethyl)-(S)-benzenepropanamide] | 0.52
CNC(=O)[C@H](Cc1ccc(O)cc1)NC(=O)Nc1nnc(S)s1 [Example 48, α-[[[(4,5-Dihydro-5-thioxo-1,3,4-thiadiazol-2-yl)amino]carbonyl]amino]-4-hydroxy-N-methyl-(S)-benzenepropanamide] | 0.4
O=C(Nc1nnc(S)s1)N[C@@H](Cc1ccc(F)cc1)C(=O)N1CCN(c2ccccn2)CC1 [Example 27, (S)-1-[2-[[[(4,5-Dihydro-5-thioxo-1,3,4-thiadiazol-2-yl)amino]-carbonyl]amino]-1-oxo-3-(4-fluorophenyl)propyl]-4-(2-pyridinyl)piperazine] | 0.27
O=C(Nc1nnc(S)s1)N[C@@H](Cc1ccccc1)C(=O)N1CCCC1 [Example 39, (S)-1-[2-[[[(4,5-Dihydro-5-thioxo-1,3,4-thiadiazol-2-yl)amino]carbonyl]amino]-1-oxo-3-phenylpropyl]pyrrolidine] | 0.65
CNC(=O)[C@H](Cc1ccc([N+](=O)[O-])cc1)NC(=O)Nc1nnc(S)s1 [Example 33, α-[[[(4,5-Dihydro-5-thioxo-1,3,4-thiadiazol-2-yl)amino]carbonyl]amino]-N-methyl-4-nitro-(S)-benzenepropanamide] | 0.33
COc1ccc(N2CCN(C(=O)[C@H](Cc3ccccc3)NC(=O)Nc3nnc(S)s3)CC2)cc1 [Example 21, (S)-1-[2-[[[(4,5-Dihydro-5-thioxo-1,3,4-thiadiazol-2-yl)amino]carbonyl]amino]-1-oxo-3-phenylpropyl]-4-(4-methoxyphenyl)piperazine] | 1.01
COC(=O)[C@H](Cc1ccccc1)NC(=O)Nc1nnc(S)s1 [Example 1, N-[[(4,5-Dihydro-5-thioxo-1,3,4-thiadiazol-2-yl)amino]carbonyl]-L-phenylalanine methyl ester] | 0.9
COC(=O)[C@@H](Cc1ccccc1)NC(=O)Nc1n[nH]c(=S)s1 [Example 3, N-[[(4,5-Dihydro-5-thioxo-1,3,4-thiadiazol-2-yl)amino]carbonyl]-D-phenylalanine methyl ester] | 2.2
O=C(Nc1nnc(S)s1)N[C@@H](Cc1c(F)c(F)c(F)c(F)c1F)C(=O)N1CCN(c2ccccn2)CC1 [Example 23, (S)-1-[2-[[[(4,5-Dihydro-5-thioxo-1,3,4-thiadiazol-2-yl)amino]-carbonyl]amino]-1-oxo-3-(pentafluorophenyl)propyl]-4-(2-pyridinyl)piperazine] | 0.01
O=C(Nc1nnc(S)s1)N[C@@H](Cc1ccccc1)C(=O)N1CCOCC1 [Example 36, (S)-4-[2-[[[(4,5-Dihydro-5-thioxo-1,3,4-thiadiazol-2-yl)amino]carbonyl]amino]-1-oxo-3-phenylpropyl]morpholine] | 0.92
COc1ccc(CNC(=O)[C@H](Cc2ccccc2)NC(=O)Nc2nnc(S)s2)cc1OC [Example 16, α-[[[(4,5-Dihydro-5-thioxo-1,3,4-thiadiazol-2-yl)amino]carbonyl]amino]-N-[(3,4-dimethoxyphenyl)methyl]-(S)-benzenepropanamide] | 0.49
CN(C)C(=O)[C@H](Cc1ccccc1)NC(=O)Nc1nnc(S)s1 [Example 8, α-[[[(4,5-Dihydro-5-thioxo-1,3,4-thiadiazol-2-yl)amino]carbonyl]-amino]-N,N-dimethyl-(S)-benzenepropanamide] | 0.25
CC(C)NC(=O)[C@H](Cc1ccccc1)NC(=O)Nc1nnc(S)s1 [Example 10, α-[[[(4,5-Dihydro-5-thioxo-1,3,4-thiadiazol-2-yl)amino]-carbonyl]amino]-N-(1-methylethyl)-(S)-benzenepropanamide] | 1.4

More lines, in order of falling Ki, values ahead:

Ki [µM] | SMILES
3.3 | NC(=O)[C@H](Cc1ccccc1)NC(=O)Nc1nnc(S)s1 [Example 9, α-[[[(4,5-Dihydro-5-thioxo-1,3,4-thiadiazol-2-yl)amino]carbonyl]-amino]-(S)-benzenepropanamide]
3.1 | O=C(Nc1nnc(S)s1)N[C@@H](Cc1ccccc1)C(=O)O [Example 12, N-[[(4,5-Dihydro-5-thioxo-1,3,4-thiadiazol-2-yl)amino]carbonyl]-L-phenylalanine]
0.86 | O=C(Nc1nnc(S)s1)N[C@@H](Cc1ccccc1)C(=O)N1CCN(Cc2ccccc2)CC1 [Example 14, (S)-1-[2-[[[(4,5-Dihydro-5-thioxo-1,3,4-thiadiazol-2-yl)amino]-carbonyl]amino]-1-oxo-3-phenylpropyl]-4-(phenylmethyl)-piperazine]
0.81 | O=C(Nc1nnc(S)s1)N[C@@H](Cc1ccccc1)C(=O)NCC1CCCCC1 [Example 38, N-Cyclohexylmethyl-α-[[[(4,5-Dihydro-5-thioxo-1,3,4-thiadiazol-2-yl)amino]carbonyl]amino]-(S)-benzenepropanamide]
0.42 | O=C(Nc1nnc(S)s1)N[C@@H](Cc1ccccc1)C(=O)N1CCN(c2ncccn2)CC1 [Example 22, (S)-1-[2-[[[(4,5-Dihydro-5-thioxo-1,3,4-thiadiazol-2-yl)amino]-carbonyl]amino]-1-oxo-3-phenylpropyl]-4-(2-pyrimidinyl)-piperazine]
0.38 | O=C(Nc1nnc(S)s1)N[C@@H](Cc1ccccc1)C(=O)N1CCSCC1 [Example 40, (S)-4-[2-[[[(4,5-Dihydro-5-thioxo-1,3,4-thiadiazol-2-yl)amino]carbonyl]amino]-1-oxo-3-phenylpropyl]-thiomorpholine]
0.1 | CNC(=O)[C@H](Cc1ccc(F)cc1)NC(=O)Nc1nnc(S)s1 [Example 26, α-[[[(4,5-Dihydro-5-thioxo-1,3,4-thiadiazol-2-yl)amino]carbonyl]amino]-4-fluoro-N-methyl-(S)-benzenepropanamide]

From patent EP0900211B1 (PHARMACIA & UPJOHN COMPANY, priority 1996, dated 1997)
